Measured values published in patent US20210238308A1 (Chugai, published 2021).

T1: PRYSPRY domain of human TRIM21 with N-terminal 6xHis tag (human)
T1 construct: Expressed in E. coli; also called hTRIM21; human TRIM21.PRYSPRY
T1 chain: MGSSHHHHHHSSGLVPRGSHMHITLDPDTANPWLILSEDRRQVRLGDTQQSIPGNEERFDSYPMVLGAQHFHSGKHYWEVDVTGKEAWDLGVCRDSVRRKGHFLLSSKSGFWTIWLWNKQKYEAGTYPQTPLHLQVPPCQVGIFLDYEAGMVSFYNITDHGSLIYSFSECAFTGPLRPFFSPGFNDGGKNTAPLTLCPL

T2: PRYSPRY domain of mouse TRIM21 with N-terminal 6xHis tag (mouse)
T2 construct: Expressed in E. coli; also called mTRIM21; mouse TRIM21.PRYSPRY
T2 chain: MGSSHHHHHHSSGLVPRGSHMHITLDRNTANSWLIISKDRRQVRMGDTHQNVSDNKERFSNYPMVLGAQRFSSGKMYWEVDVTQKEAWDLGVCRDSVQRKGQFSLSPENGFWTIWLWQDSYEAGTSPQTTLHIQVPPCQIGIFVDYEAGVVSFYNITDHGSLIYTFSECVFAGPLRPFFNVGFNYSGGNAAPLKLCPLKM


Experiments:
Experiment in all cases: SPR, Protein L capture
[1] = target: T1, PRYSPRY domain of human TRIM21 with …
[2] = target: T2, PRYSPRY domain of mouse TRIM21 with …
human FcRn = target: T3, human FcRn (human, UniProt P55899 fragment; P61769 fragment, limits assumed)
T3 construct: also called hFcRn

Row | Binder | hTRIM21 binding level ratio (variant/control antibody) [1] | mTRIM21 binding level ratio (variant/control antibody) [2] | hFcRn binding level ratio (variant/control antibody) (human FcRn)
1 | MRAH-G1d/MRAL-KT0 N315K (antibody, human IgG1, kappa, copies: 2 + 2) heavy: QVQLQESGPGLVRPSQTLSLTCTVSGYSITSDHAWSWVRQPPGRGLEWIGYISYSGITTYNPSLKSRVTMLRDTSKNQFSLRLSSVTAADTAVYYCARSLARTTAMDYWGQGSLVTVSS[human IgG1 constant region with N315K (EU numbers) omitted here] light: DIQMTQSPSSLSASVGDRVTITCRASQDISSYLNWYQQKPGKAPKLLIYYTSRLHSGVPSRFSGSGSGTDFTFTISSLQPEDIATYYCQQGNTLPYTFGQGTKVEIKRTVAAPSVFIFPPSDEQLKSGTASVVCLLNNFYPREAKVQWKVDNALQSGNSQESVTEQDSKDSTYSLSSTLTLSKADYEKHKVYACEVTHQGLSSPVTKSFNRGEC | 0.994 | 2.78 | 0.8
2 | MRAH-G1d/MRAL-KT0 N315L (antibody, human IgG1, kappa, copies: 2 + 2) heavy: QVQLQESGPGLVRPSQTLSLTCTVSGYSITSDHAWSWVRQPPGRGLEWIGYISYSGITTYNPSLKSRVTMLRDTSKNQFSLRLSSVTAADTAVYYCARSLARTTAMDYWGQGSLVTVSS[human IgG1 constant region with N315L (EU numbers) omitted here] light: DIQMTQSPSSLSASVGDRVTITCRASQDISSYLNWYQQKPGKAPKLLIYYTSRLHSGVPSRFSGSGSGTDFTFTISSLQPEDIATYYCQQGNTLPYTFGQGTKVEIKRTVAAPSVFIFPPSDEQLKSGTASVVCLLNNFYPREAKVQWKVDNALQSGNSQESVTEQDSKDSTYSLSSTLTLSKADYEKHKVYACEVTHQGLSSPVTKSFNRGEC | 1.13 | 2 | 0.94
3 | MRAH-G1d/MRAL-KT0 N315M (antibody, human IgG1, kappa, copies: 2 + 2) heavy: QVQLQESGPGLVRPSQTLSLTCTVSGYSITSDHAWSWVRQPPGRGLEWIGYISYSGITTYNPSLKSRVTMLRDTSKNQFSLRLSSVTAADTAVYYCARSLARTTAMDYWGQGSLVTVSS[human IgG1 constant region with N315M (EU numbers) omitted here] light: DIQMTQSPSSLSASVGDRVTITCRASQDISSYLNWYQQKPGKAPKLLIYYTSRLHSGVPSRFSGSGSGTDFTFTISSLQPEDIATYYCQQGNTLPYTFGQGTKVEIKRTVAAPSVFIFPPSDEQLKSGTASVVCLLNNFYPREAKVQWKVDNALQSGNSQESVTEQDSKDSTYSLSSTLTLSKADYEKHKVYACEVTHQGLSSPVTKSFNRGEC | 1.3 | 2.39 | 0.88

The remaining lines, values ahead:

Row | hTRIM21 binding level ratio (variant/control antibody) [1] | mTRIM21 binding level ratio (variant/control antibody) [2] | hFcRn binding level ratio (variant/control antibody) (human FcRn) | Binder
4 | 1.21 | 2.31 | 0.87 | MRAH-G1d/MRAL-KT0 N315Q (antibody, human IgG1, kappa, copies: 2 + 2) heavy: QVQLQESGPGLVRPSQTLSLTCTVSGYSITSDHAWSWVRQPPGRGLEWIGYISYSGITTYNPSLKSRVTMLRDTSKNQFSLRLSSVTAADTAVYYCARSLARTTAMDYWGQGSLVTVSS[human IgG1 constant region with N315Q (EU numbers) omitted here] light: DIQMTQSPSSLSASVGDRVTITCRASQDISSYLNWYQQKPGKAPKLLIYYTSRLHSGVPSRFSGSGSGTDFTFTISSLQPEDIATYYCQQGNTLPYTFGQGTKVEIKRTVAAPSVFIFPPSDEQLKSGTASVVCLLNNFYPREAKVQWKVDNALQSGNSQESVTEQDSKDSTYSLSSTLTLSKADYEKHKVYACEVTHQGLSSPVTKSFNRGEC
5 | 1.21 | 2.93 | 0.34 | MRAH-G1d/MRAL-KT0 N315P (antibody, human IgG1, kappa, copies: 2 + 2) heavy: QVQLQESGPGLVRPSQTLSLTCTVSGYSITSDHAWSWVRQPPGRGLEWIGYISYSGITTYNPSLKSRVTMLRDTSKNQFSLRLSSVTAADTAVYYCARSLARTTAMDYWGQGSLVTVSS[human IgG1 constant region with N315P (EU numbers) omitted here] light: DIQMTQSPSSLSASVGDRVTITCRASQDISSYLNWYQQKPGKAPKLLIYYTSRLHSGVPSRFSGSGSGTDFTFTISSLQPEDIATYYCQQGNTLPYTFGQGTKVEIKRTVAAPSVFIFPPSDEQLKSGTASVVCLLNNFYPREAKVQWKVDNALQSGNSQESVTEQDSKDSTYSLSSTLTLSKADYEKHKVYACEVTHQGLSSPVTKSFNRGEC
